# From the supplement of paper PMC4166925
# ± gives the standard deviation of the averaged measurements. Over roughly 33,000 sequences, “E-score (dimensionless, -0.5 to 0.5)” has its median near -0.046; the highest 2% begin near 0.36. The list shows a part of the results.
# Test system: T1, SpTbr T-box DNA-binding domain (GST fusion)
# T1 sequence: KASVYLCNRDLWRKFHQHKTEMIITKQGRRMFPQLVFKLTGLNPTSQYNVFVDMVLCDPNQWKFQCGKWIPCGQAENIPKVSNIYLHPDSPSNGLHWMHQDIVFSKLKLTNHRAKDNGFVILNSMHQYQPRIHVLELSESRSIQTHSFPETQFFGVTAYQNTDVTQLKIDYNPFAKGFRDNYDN
# Experiment: PBM E-score of 8-mer (E-score (dimensionless, -0.5 to 0.5)); Tbr is Tbrain of the sea star Patiria miniata (Pm) or the sea urchin Strongylocentrotus purpuratus (Sp); higher = stronger binding preference; most listed sequences are background and not binding sites
# Conditions: the construct has about 5 more residues each side
# Procedure, shortened: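 Universal Agilent oligonucleotide arrays, made double-stranded by primer extension, were incubated with 200 nM GST-fused Tbr T-box DNA-binding domain in PBS (pH 7.5). The protein was expressed in BL21 E. coli at 20 °C and purified by glutathione affinity chromatography. After scanning and quantification, the Universal PBM Analysis Suite assigned an enrichment E-score to each ungapped 8-mer, averaged over duplicate arrays.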
row,Sequence,PBM E-score of 8-mer
1,GACTCTTA,0.0596 ± 0.018
2,CCCTGAAC,-0.0744 ± 0.038
3,CTCTGAGA,-0.207 ± 0.0074
4,ATGTCTTG,-0.0305 ± 0.0035
5,AAGCGAAG,-0.0668 ± 0.088
6,AGTGAATG,0.113 ± 0.012
7,ACAATCAT,-0.00293 ± 0.049
8,GCGCAAGA,0.0184 ± 0.044
9,TACGATCA,-0.116 ± 0.0065
10,CGTGTATA,-0.0736 ± 0.07
11,ATAGCGCA,0.17 ± 0.014
12,GACATAGA,-0.106 ± 0.057
13,CTCAAAAG,-0.147 ± 0.012
14,CGTATGCC,-0.271 ± 0.057
15,TACCGCCA,0.0912 ± 0.014
16,GCGCCAGA,0.0931 ± 0.034
17,TCCATTAA,-0.206 ± 0.075
18,AAAGTGCG,0.337 ± 0.006
19,GTATCCAC,0.0277 ± 0.049
20,TTAGCAAA,0.129 ± 0.027
21,ATTCATAG,-0.296 ± 0.054
22,GCTTGTAC,-0.0816 ± 0.042
23,CAATTGGC,0.0712 ± 0.018
24,CCGGAGCA,-0.16 ± 0.027
25,ACCGAACA,0.0912 ± 0.1

row,Sequence,PBM E-score of 8-mer
1,TGTACAAA,-0.0805 ± 0.017
2,AGCTCTGC,-0.123 ± 0.0024
3,AGCTTGCG,0.0783 ± 0.029
4,AATGTAGA,-0.248 ± 0.068
5,AGAGTTAG,-0.00705 ± 0.085
6,CTGTATAA,-0.236 ± 0.033
7,AAATTAAT,-0.133 ± 0.0065
8,TGACGCCA,0.299 ± 0.004
9,GAGCCGAC,0.00354 ± 0.049
10,CGCCTATA,-0.0217 ± 0.054
11,CCTACACC,0.265 ± 0.013
12,GCCTTAGA,-0.18 ± 0.014
13,CATATGGA,-0.197 ± 0.021
14,ATTGCCCA,-0.057 ± 0.0021
15,CTGAGAAG,-0.0925 ± 0.15
16,GACGGAGA,-0.144 ± 0.017
17,ACTAACCC,0.0812 ± 0.003
18,AGTCATCG,-0.119 ± 0.063
19,TCGTGTAA,0.144 ± 0.031
20,AGATTCCT,-0.101 ± 0.021
21,GCCTATAC,-0.317 ± 0.023
22,CAAGTAAG,-0.188 ± 0.0073
23,CAGCGAGG,0.076 ± 0.011
24,AAACGATT,0.00449 ± 0.012
25,GCATCTGA,-0.167 ± 0.038

row,Sequence,PBM E-score of 8-mer
1,CCATTTGC,-0.113 ± 0.05
2,ACGAACCA,-0.00981 ± 0.051
3,GGTCACGA,0.27 ± 0.026
4,CGGCAGAA,-0.071 ± 0.034
5,TGGAACCA,-0.168 ± 0.059
6,CAAGGTGA,0.392 ± 0.0089
7,ATAACCGA,-0.206 ± 0.066
8,GCAGTGCC,-0.102 ± 0.027
9,ATATGTCA,-0.0264 ± 0.024
10,TCACAAGA,0.175 ± 0.026
11,ATGCGTAC,-0.257 ± 0.069
12,GTTTGCGA,0.0295 ± 0.0092
13,CGCCGAAC,0.074 ± 0.064
14,CGCAGCCA,0.0637 ± 0.032
15,GAGTGAGA,0.346 ± 0.023
16,ATAGCCAT,-0.118 ± 0.018
17,AGTTGGGA,-0.104 ± 0.098
18,CTACCAGA,-0.117 ± 0.026
19,ACGACACA,0.12 ± 0.091
20,ATAGCTCG,-0.0954 ± 0.0088
21,CTGATGAA,0.0658 ± 0.013
22,AACCTGTC,0.248 ± 0.011
23,ATTCGACC,-0.158 ± 0.036
24,CGCGTTCC,-0.0195 ± 0.011
25,TGTAATAA,0.0949 ± 0.1

row,Sequence,PBM E-score of 8-mer
1,AATCATCA,0.238 ± 0.015
2,CATGGAAA,-0.142 ± 0.06
3,ACAGCAGG,-0.0406 ± 0.07
4,GAGTGGGA,0.12 ± 0.015
5,CCCATTAA,-0.0049 ± 0.0021
6,CCACGCGG,0.0195 ± 0.053
7,GAAGCATA,-0.234 ± 0.011
8,GCTATTTA,-0.00679 ± 0.015
9,ATGACGGA,-0.139 ± 0.0034
10,ACGCACTG,-0.0655 ± 0.037
11,AAAAGACA,-0.0444 ± 0.056
12,CTGTTTAC,0.161 ± 0.042
13,ACTCTGCC,0.0713 ± 0.0095
14,ACCGAGAA,0.0904 ± 0.0019
15,CTCCTAAC,-0.0551 ± 0.024
16,AATTCATA,-0.101 ± 0.041
17,CCAGTTAA,-0.0568 ± 0.0054
18,GTTATCCA,0.0147 ± 0.025
19,CCATAGAC,-0.218 ± 0.062
20,GACCGTCC,-0.182 ± 0.071
21,AACACGTA,0.317 ± 0.018
22,AACGTAGG,-0.0674 ± 0.1
23,CCAAACAG,-0.0525 ± 0.0066
24,GAGTAGAC,-0.0936 ± 0.018
25,CAAAGCTC,-0.309 ± 0.054

row,Sequence,PBM E-score of 8-mer
1,GAGCGCTA,0.205 ± 0.021
2,GCCAGGAA,-0.0317 ± 0.011
3,AGTGACAT,0.277 ± 0.056
4,GCTGACTA,-0.0473 ± 0.02
5,GACGCAAA,-0.0592 ± 0.071
6,TAGCTTAA,-0.103 ± 0.03
7,ACTATGCA,-0.0115 ± 0.083
8,TAATATAA,-0.227 ± 0.032
9,GAAGCGCC,0.0968 ± 0.042
10,ATGCGGTC,-0.162 ± 0.054
11,AATGAGTG,-0.0178 ± 0.024
12,CTGATCGC,0.11 ± 0.096
13,AAGAATCC,-0.0435 ± 0.056
14,CCATGCGA,0.142 ± 0.051
15,ATCACTAA,0.0706 ± 0.027
16,CCCGCCCC,-0.0167 ± 0.1
17,AAGGATGC,-0.0902 ± 0.06
18,CCTGCTAG,0.0516 ± 0.05
19,ACATCTCG,0.0203 ± 0.007
20,AGGCATTC,-0.133 ± 0.0052
21,GAGTACCA,0.0178 ± 0.00028
22,AAACACCT,0.442 ± 0.015
23,TATCGTGA,0.192 ± 0.0078
24,AGGTGTAC,0.294 ± 0.0088
25,AGTTCCAT,0.00979 ± 0.0044

row,Sequence,PBM E-score of 8-mer
1,AAGATGTG,0.2 ± 0.047
2,GGACTACC,-0.277 ± 0.057
3,ACGCCCAC,0.118 ± 0.12
4,GGTTGTGA,0.293 ± 0.029
5,GGCGTCTA,0.0469 ± 0.089
6,TTAGACAA,-0.247 ± 0.036
7,GCGCTGAA,0.0114 ± 0.0097
8,AAGAAAAA,-0.161 ± 0.065
9,ATGACCTG,0.0493 ± 0.034
10,ACGCACCG,0.0314 ± 0.086
11,CGTTGCGA,0.288 ± 0.011
12,CTACTGAG,-0.076 ± 0.018
13,TCCAAAGA,-0.0462 ± 0.036
14,CCTCAATA,-0.22 ± 0.037
15,ATTACTGA,-0.0466 ± 0.057
16,ACCTTACT,0.0714 ± 0.031
17,TAAGGCGA,0.137 ± 0.025
18,GATGGATA,-0.14 ± 0.084
19,AATGCGAA,0.0358 ± 0.024
20,GTACGTAA,-0.2 ± 0.087
21,AACAGAGT,-0.0053 ± 0.1
22,CCCAAGAA,-0.101 ± 0.035
23,ATAACTCG,-0.0977 ± 0.0033
24,GTTATAAC,0.117 ± 0.066
25,GCCATAAA,-0.0259 ± 0.034

row,Sequence,PBM E-score of 8-mer
1,AATCCAAT,0.0559 ± 0.048
2,GGTAAACC,0.116 ± 0.048
3,GTCACGCA,0.279 ± 0.017
4,ACCACCGG,-0.108 ± 0.007
5,ACTCACTC,-0.0615 ± 0.031
6,CAGCAAGC,-0.0921 ± 0.045
7,CACCACTC,0.166 ± 0.049
8,AGCGGCAA,0.0796 ± 0.039
9,GAGCCCCA,-0.124 ± 0.065
10,AATTGAAC,-0.0313 ± 0.0045
11,ACCCCTGG,-0.0965 ± 0.0066
12,CCATACAG,-0.253 ± 0.097
13,ACTATAGA,-0.245 ± 0.0039
14,AGCGCGCA,0.112 ± 0.047
15,AATCCCTC,-0.111 ± 0.025
16,CGAGCTTC,0.0382 ± 0.016
17,CCATACTC,0.0687 ± 0.002
18,AAGTTGAA,-0.298 ± 0.067
19,CATTTGCA,0.0389 ± 0.025
20,ATGTCTCG,-0.289 ± 0.017
21,AGAACCTA,-0.249 ± 0.053
22,AGTTCAAG,-0.283 ± 0.036
23,ACCATCTA,-0.177 ± 0.04
24,GCCTATGA,-0.139 ± 0.046
25,CACTGGGC,-0.137 ± 0.012

row,Sequence,PBM E-score of 8-mer
1,GCTAATCC,-0.0694 ± 0.041
2,CAAGATCG,0.0267 ± 0.034
3,CTGTGGAA,0.061 ± 0.12
4,CTGTAAGC,0.0549 ± 0.007
5,GGTGCATA,0.0222 ± 0.011
6,TTGAGAAA,0.000105 ± 0.093
7,GCGGACCA,0.0506 ± 0.0036
8,ATGTAATA,-0.0427 ± 0.038
9,CTTGAACA,-0.0736 ± 0.0022
10,CAAGAGCC,-0.0515 ± 0.0038
11,AAGCCGGA,-0.278 ± 0.011
12,AACGTCGC,0.0261 ± 0.003
13,TATCTGCA,-0.0527 ± 0.061
14,ACCTCCCG,0.0918 ± 0.056
15,AATCCGGT,-0.114 ± 0.0073
16,CAGGGGAC,-0.16214 ± 3.5e-05
17,CGATGGCG,0.184 ± 0.045
18,TACAAGGA,-0.158 ± 0.065
19,GGCTCCTA,-0.1152 ± 0.0011
20,AAATTCTT,-0.118 ± 0.13
21,CTTCACCC,0.123 ± 0.04
22,GAAACCAC,-0.0345 ± 0.067
23,ACGTGCAA,0.141 ± 0.038
24,GTTACGAA,0.00639 ± 0.00059
25,CAGCCCGC,-0.128 ± 0.043

row,Sequence,PBM E-score of 8-mer
1,GACTAGAC,-0.175 ± 0.011
2,CAAACACG,0.187 ± 0.02
3,TGCGCTAA,0.191 ± 0.035
4,GCCGTTCC,-0.096 ± 0.054
5,ATTGGCAG,-0.0228 ± 0.077
6,TATCTTGA,-0.194 ± 0.023
7,CAGCAAAG,-0.169 ± 0.02
8,ACGCTGCC,0.0634 ± 0.0072
9,AAACAATA,0.0101 ± 0.019
10,AGTCTCTC,-0.105 ± 0.029
11,GTCTCGAA,-0.133 ± 0.032
12,CCTAAGCC,-0.179 ± 0.099
13,CCCGAACC,-0.148 ± 0.026
14,CAAACCAG,-0.188 ± 0.026
15,CCGGTGCG,0.142 ± 0.052
16,CAGTGGTC,-0.126 ± 0.069
17,GGTCCTGA,-0.164 ± 0.037
18,GGTAACAC,0.435 ± 0.0032
19,CCTGGTAG,-0.198 ± 0.016
